Assay results from ChEMBL document CHEMBL4888484, “Replenishing the malaria drug discovery pipeline: Screening and hit evaluation of the MMV Hit Generation Library 1 (HGL1) against asexual blood stage Plasmodium falciparum ,using a nano luciferase reporter read-out” (2022).
Among all 150,000 compounds or so, about 540 (0.36%) showed an effect of 50% or more. This is one part of the list.

Tested on: Plasmodium falciparum
Assay: Primary screen in NF54 nanoGlo assay, in single point, at 2uM, 72h; a lower Z score goes with more inhibition
Format: functional, Erythrocyte
Conditions: timepoint 72 hour

| Compound | % Inhibition [%] | Z score |
| --- | --- | --- |
| COc1cc(C(=O)NCCN(C)C)cc(OC)c1OC | -6 | 1.13 |
| COc1ccc(CN(CC(C)C)CC(C)(C)C)nc1 | -8 | 1.01 |
| Cc1nc2nnnn2c(C)c1C/C=C/c1ccccc1 | 31 | -0.74 |
| Cc1ccc(N(C)C(=O)c2cccn2Cc2noc(C3CC3)n2)cc1 | 0 | 0.07 |
| O=C1COCC(CC2CN(c3ncnc4sccc34)c3ccccc32)N1 (centres undefined) | 12 | -1.66 |
| COc1ccc(CNC(=O)Cc2nnc(-c3ccc4ncccc4c3)o2)cc1 | 0 | -0.03 |
| O=C1CCCc2c1[nH]c1cc(-n3ccnc3[C@H]3CCOC3)ccc21 | -2 | 0.39 |
| CC(=O)N/C(=N\OCc1ccc(F)cc1)c1nonc1NC(C)=O | 29 | -3.24 |
| CC(C)(Oc1ccc(Cl)cc1)C(=O)Nc1c2c(nn1C(C)(C)C)CS(=O)(=O)C2 | -14 | 2.68 |
| Cc1cc(C(=O)NCC2CCN(Cc3ccoc3)CC2)no1 | -11 | 1.11 |
| O=C(NCCCN1CCOCC1)c1cnc(-c2ccc3c(c2)OCO3)nc1Nc1ccccc1F | 5 | -0.57 |
| C[C@H]1[C@@H]2[C@@H](O)C([C@H](C)C(=O)NC3CCCCC3)CC[C@@]2(C)CC[C@@H]1NC(=O)CC(C)(C)C (some centres undefined) | 69 | -5.14 |
| Cc1nccc(N2CCN(C)[C@]3(CCC(=O)N(CC4CC4)CC3)C2)n1 | -13 | 1.3 |
| Cc1nc(Cn2cc(C(N)=O)nc2C2CC2)sc1C | -11 | 1.31 |
| CN(Cc1nccn1CC(F)(F)F)c1cc(N2CCC[C@@H]2CO)ncn1 | -7 | 1.01 |
| C[C@@H]1Oc2ccc(NC(=O)C3=NN(C)C(=O)CC3)cc2NC1=O | -4 | 0.59 |
| COc1ccc(C(=O)N[C@@H](C)CC(C)(C)O)c(C)c1 | -4 | 0.5 |
| Cc1ccc(NC(=O)CC(=O)NCc2nnc3n2CCC3)c(C)c1 | -11 | 1.41 |
| Cc1cc(C)cc(Nc2c3c(nc4ncnn24)CCCC3)c1 | -17 | 1.56 |
| Cc1cnc(C[C@H]2CCCN(C(=O)C3CCCC3)C2)n1C(C)C | 8 | -1.27 |
| CCC[C@H](Nc1nc(-c2ccccn2)nc2c1CCNC2)c1nccn1C | -4 | 0.62 |

| Compound | % Inhibition [%] | Z score |
| --- | --- | --- |
| COc1ccccc1[C@@H](NC1CCOCC1)c1ccco1 | -6 | 0.81 |
| C[C@](N)(CO)c1cc(Cl)cc(Cl)c1 | 3 | -0.42 |
| C[C@@H]1CN(C(=O)C(C)(C)Cc2cccc(Cl)c2)C[C@H]1CO | -11 | 1.6 |
| CC(C)(O)C1CN(C(=O)Nc2ccccc2CN2CCc3ccccc32)C1 | 28 | -3.17 |
| CC(=O)N1CCN(C(=O)CC(C)C)CC[C@H]1c1nc(C)no1 | -10 | 1.61 |
| COc1ccc(-c2noc(N3CCN(c4cccc(OC)c4)CC3)n2)cc1 | -5 | 0.66 |
| COCCN1C(=O)N(C)C(=O)[C@@]12CCN(Cc1cccc(OC)c1)C2 | 0 | -0.05 |
| O=C(c1ccccn1)N1CCc2cc(S(=O)(=O)NC3CCCC3)ccc21 | -17 | 1.58 |
| CCn1cc(CNC(=O)[C@@H]2CCCN2C(=O)OC(C)(C)C)cn1 | -11 | 0.89 |
| Cc1ccc(N2C(=O)C3ON=C(c4cccnc4)C3C2=O)c(C)c1 (centres undefined) | -8 | 0.95 |
| COc1ccc(-c2nccn3cc(C(=O)NCCc4ccccn4)nc23)cc1 | 32 | -3.64 |
| Cc1csc(S(=O)(=O)N2C[C@H](CO)[C@@H](CO)C2)c1 | 1 | -0.1 |
| CN1C[C@H]2CC[C@@H](C1)N(C(=O)c1cc3cccc(Cl)c3n1C)C2 | -5 | 0.61 |
| Cc1nn(-c2ccccc2)c(N2CCN(C)CC2)c1CN(CCC(C)C)C(=O)c1ccc(C(C)(C)C)cc1 | -10 | 0.89 |
| Cc1cc(C)c(C#N)c(NCC(F)(F)CN)n1 | -7 | 0.92 |
| O=C(NCc1c(Cl)cccc1-n1ccnc1)NC(=O)c1cccc(C(F)(F)F)c1 | -12 | 1.35 |
| COc1ccc(-c2ccc3c(c2)CCOC3)cc1C1(C#N)CC1 | -12 | 2.16 |
| Cc1cccc(NC(=O)CN(CC(N)=O)C2CCCC2)c1 | -2 | 0.21 |
| Cc1cc(C#N)cc(C)c1OCCCC(C)(C)C#N | 4 | -0.51 |
| COC[C@H](C)C(=O)NS(=O)(=O)c1cc(S(=O)(=O)N(C)C)ccc1Cl | -27 | 3.17 |
| Cc1nn(C)cc1[C@H]1OCC[C@@H]1NC(=O)NCCc1cccc(C(F)(F)F)n1 | -9 | 1.44 |
